# According to the supplement of paper PMC8728848:
# The other results are listed elsewhere or left out.
# B1: PX15618A-bth-503-24-503 (Bacteroides thetaiotaomicron) (protein)
# chain: NKSEDKLSGDDFWAQGNETNAEAFLLSIYNSFRNATMSQRPFLTYSGDMRCAPITAYSTGDKYVAYLANNDMGELRNTYPDDARGGLIMQWDVFYTAIQDANILLAEIDKVPGMDELKRSRFKAEAIFMRSLSYFFIVRAFGDVPYYTNAYNEAPLPRTNMVIVLQNCLADLQPLLDDDPGAEVLPWSYSSYSSKGIRASRGSVIALMMHINLWLVQFDAQNKEQYYRNVVSLGEELERNNGAYSLLDINRSSVIFAGGSDEGLFEIAQNINFNEIFMMNAKFSDNVSYSCLNKSMPLFCYSGDYLMTLFPMYEDDARKELWFDEKIYSTSVSSSAPKEIKKFWNIDTYGNGTITSNSGNQIVFRYAGALLLYAEALAALGTNDTKACELLNRVRNRAHASEINTSGSELMDAIFWERCRELIGEGHYYYDLVRTGKVYNRNYCMNPMTRTNFNVGAWTWPIHRNALKNNTQIGLNLFWE
# What was measured:
# Assay in all cases: glycan array binding signal (z-score within array); higher = stronger binding
# Conditions in all cases: glycan notation: IUPAC condensed, linker removed
# [1] = molecular target: Gal(b1-3)GlcNAc(b1-2)Man(a1-3)[Gal(b1-3)GlcNAc(b1-2)Man(a1-6)]Man(b1-4)GlcNAc(b1-4)[Fuc(a1-6)]GlcNAc
# Summary of the method: (§1)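 Glycan array binding is given as a within-array Z-score, which can be read as non-binding when negative. The arrays, 3228 of them, came from the Consortium for Functional Glycomics database and were retained only where the protein sequence was available. Z-scores were averaged across arrays of the same protein sequence at different concentrations or buffers and across linkers.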
# [2] = molecular target: Gal(b1-3)GlcNAc(b1-2)Man(a1-3)[GlcNAc(b1-4)][Gal(b1-3)GlcNAc(b1-2)Man(a1-6)]Man(b1-4)GlcNAc(b1-4)GlcNAc
# Summary of the method: as §1
# [3] = molecular target: Gal(b1-3)GlcNAc(b1-2)[Gal(b1-3)GlcNAc(b1-6)]Man(a1-6)[Gal(b1-3)GlcNAc(b1-2)Man(a1-3)]Man(b1-4)GlcNAc(b1-4)GlcNAc
# Summary of the method: as §1
# [4] = molecular target: Gal(b1-3)GlcNAc(b1-3)Gal(b1-3)GlcNAc
# Summary of the method: as §1
# [5] = molecular target: Gal(b1-3)GlcNAc(b1-3)Gal(b1-4)Glc
# Summary of the method: as §1
# [6] = molecular target: Gal(b1-3)GlcNAc(b1-3)Gal(b1-4)GlcNAc
# Summary of the method: as §1
# [7] = molecular target: Gal(b1-3)GlcNAc(b1-3)Gal(b1-4)GlcNAc(b1-2)Man(a1-3)[Gal(b1-3)GlcNAc(b1-3)Gal(b1-4)GlcNAc(b1-2)Man(a1-6)]Man(b1-4)GlcNAc(b1-4)GlcNAc
# Summary of the method: as §1
# [8] = molecular target: Gal(b1-3)GlcNAc(b1-3)Gal(b1-4)GlcNAc(b1-2)[Gal(b1-3)GlcNAc(b1-3)Gal(b1-4)GlcNAc(b1-6)]Man(a1-6)[Gal(b1-3)GlcNAc(b1-3)Gal(b1-4)GlcNAc(b1-2)Man(a1-3)]Man(b1-4)GlcNAc(b1-4)[Fuc(a1-6)]GlcNAc
# Summary of the method: as §1
# [9] = molecular target: Gal(b1-3)GlcNAc(b1-3)Gal(b1-4)GlcNAc(b1-3)Gal(b1-4)GlcNAc(b1-2)[Gal(b1-3)GlcNAc(b1-3)Gal(b1-4)GlcNAc(b1-3)Gal(b1-4)GlcNAc(b1-6)]Man(a1-6)[Gal(b1-3)GlcNAc(b1-3)Gal(b1-4)GlcNAc(b1-3)Gal(b1-4)GlcNAc(b1-2)Man(a1-3)]Man(b1-4)GlcNAc(b1-4)[Fuc(a1-6)]GlcNAc
# Summary of the method: as §1
# [10] = molecular target: Gal(b1-3)GlcNAc(b1-3)Gal(b1-4)GlcNAc(b1-6)[Gal(b1-3)GlcNAc(b1-3)]Gal(b1-4)Glc
# Summary of the method: as §1
# [11] = molecular target: Gal(b1-3)GlcNAc(b1-3)Gal(b1-4)[Fuc(a1-3)]GlcNAc
# Summary of the method: as §1
# [12] = molecular target: Gal(b1-3)GlcNAc(b1-3)Gal(b1-4)[Fuc(a1-3)]GlcNAc(b1-6)[Gal(b1-3)GlcNAc(b1-3)]Gal(b1-4)Glc
# Summary of the method: as §1
# [13] = molecular target: Gal(b1-3)GlcNAc(b1-3)GalNAc
# Summary of the method: as §1
# [14] = molecular target: Gal(b1-3)GlcNAc(b1-6)Gal(b1-4)GlcNAc
# Summary of the method: as §1
# [15] = molecular target: Gal(b1-3)GlcNAc(b1-6)GalNAc
# Summary of the method: as §1
# [16] = molecular target: Gal(b1-3)GlcNAc(b1-6)[Gal(b1-3)]GalNAc
# Summary of the method: as §1
# Gal(b1-3)GlcNAc6S = molecular target: Gal(b1-3)GlcNAc6S
# Summary of the method: as §1
# [17] = molecular target: Gal(b1-3)[Fuc(a1-4)]GlcNAc
# Summary of the method: as §1
# [18] = molecular target: Gal(b1-3)[Fuc(a1-4)]GlcNAc(b1-2)Man
# Summary of the method: as §1
# [19] = molecular target: Gal(b1-3)[Fuc(a1-4)]GlcNAc(b1-2)Man(a1-3)[Gal(b1-3)[Fuc(a1-4)]GlcNAc(b1-2)Man(a1-6)]Man(b1-4)GlcNAc(b1-4)[Fuc(a1-6)]GlcNAc
# Summary of the method: as §1
# [20] = molecular target: Gal(b1-3)[Fuc(a1-4)]GlcNAc(b1-3)Gal(b1-3)[Fuc(a1-4)]GlcNAc
# Summary of the method: as §1
# [21] = molecular target: Gal(b1-3)[Fuc(a1-4)]GlcNAc(b1-3)Gal(b1-4)[Fuc(a1-3)]GlcNAc
# Summary of the method: as §1
# [22] = molecular target: Gal(b1-3)[Fuc(a1-4)]GlcNAc(b1-6)GalNAc
# Summary of the method: as §1
# [23] = molecular target: Gal(b1-3)[GlcNAc(b1-6)]GalNAc
# Summary of the method: as §1
# [24] = molecular target: Gal(b1-3)[Neu5Ac(a2-6)]GalNAc
# Summary of the method: as §1
# [25] = molecular target: Gal(b1-3)[Neu5Ac(a2-6)]GlcNAc(b1-4)Gal(b1-4)Glc
# Summary of the method: as §1
# [26] = molecular target: Gal(b1-3)[Neu5Ac(b2-6)]GalNAc
# Summary of the method: as §1
# Gal(b1-4)Gal = molecular target: Gal(b1-4)Gal
# Summary of the method: as §1
# [27] = molecular target: Gal(b1-4)GalNAc(a1-3)[Fuc(a1-2)]Gal(b1-4)GlcNAc
# Summary of the method: as §1
# [28] = molecular target: Gal(b1-4)GalNAc(b1-3)[Fuc(a1-2)]Gal(b1-4)GlcNAc
# Summary of the method: as §1
# Gal(b1-4)Glc = molecular target: Gal(b1-4)Glc
# Summary of the method: as §1
# Gal(b1-4)Glc6S = molecular target: Gal(b1-4)Glc6S
# Summary of the method: as §1
# Gal(b1-4)GlcNAc = molecular target: Gal(b1-4)GlcNAc
# Summary of the method: as §1
# [29] = molecular target: Gal(b1-4)GlcNAc(a1-6)Gal(b1-4)GlcNAc
# Summary of the method: as §1
# Gal(b1-4)GlcNAc(b1-2)Man = molecular target: Gal(b1-4)GlcNAc(b1-2)Man
# Summary of the method: as §1
# [30] = molecular target: Gal(b1-4)GlcNAc(b1-2)Man(a1-3)Man(b1-4)GlcNAc(b1-4)GlcNAc
# Summary of the method: as §1
# [31] = molecular target: Gal(b1-4)GlcNAc(b1-2)Man(a1-3)[Gal(b1-4)GlcNAc(b1-2)Man(a1-6)]Man(b1-4)GlcNAc(b1-4)GlcNAc
# Summary of the method: as §1
# [32] = molecular target: Gal(b1-4)GlcNAc(b1-2)Man(a1-3)[Gal(b1-4)GlcNAc(b1-2)Man(a1-6)]Man(b1-4)GlcNAc(b1-4)[Fuc(a1-6)]GlcNAc
# Summary of the method: as §1
# [33] = molecular target: Gal(b1-4)GlcNAc(b1-2)Man(a1-3)[Gal(b1-4)GlcNAc(b1-2)Man(a1-6)][Gal(b1-4)GlcNAc(b1-4)]Man(b1-4)GlcNAc(b1-4)[Fuc(a1-6)]GlcNAc
# Summary of the method: as §1
# [34] = molecular target: Gal(b1-4)GlcNAc(b1-2)Man(a1-3)[Gal(b1-4)GlcNAc(b1-2)Man(a1-6)][GlcNAc(b1-4)]Man(b1-4)GlcNAc(b1-4)[Fuc(a1-6)]GlcNAc
# Summary of the method: as §1
# [35] = molecular target: Gal(b1-4)GlcNAc(b1-2)Man(a1-3)[GlcNAc(b1-2)Man(a1-6)]Man(b1-4)GlcNAc(b1-4)GlcNAc
# Summary of the method: as §1
# [36] = molecular target: Gal(b1-4)GlcNAc(b1-2)Man(a1-3)[GlcNAc(b1-4)][Gal(b1-4)GlcNAc(b1-2)Man(a1-6)]Man(b1-4)GlcNAc(b1-4)GlcNAc
# Summary of the method: as §1
# [37] = molecular target: Gal(b1-4)GlcNAc(b1-2)Man(a1-3)[Man(a1-6)]Man(b1-4)GlcNAc(b1-4)GlcNAc
# Summary of the method: as §1
# [38] = molecular target: Gal(b1-4)GlcNAc(b1-2)Man(a1-6)Man(b1-4)GlcNAc(b1-4)GlcNAc
# Summary of the method: as §1
# [39] = molecular target: Gal(b1-4)GlcNAc(b1-2)Man(a1-6)[GlcNAc(b1-2)Man(a1-3)]Man(b1-4)GlcNAc(b1-4)GlcNAc
# Summary of the method: as §1
binder,measurement,setting,value
B1,glycan array binding signal (z-score),[1],0.309
same,glycan array binding signal (z-score),[2],-0.221
same,glycan array binding signal (z-score),[3],2.47
same,glycan array binding signal (z-score),[4],-0.574
same,glycan array binding signal (z-score),[5],-0.247
same,glycan array binding signal (z-score),[6],0.29
same,glycan array binding signal (z-score),[7],-0.123
same,glycan array binding signal (z-score),[8],0.91
same,glycan array binding signal (z-score),[9],1.4
same,glycan array binding signal (z-score),[10],-0.28
same,glycan array binding signal (z-score),[11],0.442
same,glycan array binding signal (z-score),[12],-0.35
same,glycan array binding signal (z-score),[13],-0.179
same,glycan array binding signal (z-score),[14],-0.356
same,glycan array binding signal (z-score),[15],2.58
same,glycan array binding signal (z-score),[16],-0.512
same,glycan array binding signal (z-score),Gal(b1-3)GlcNAc6S,-0.418
same,glycan array binding signal (z-score),[17],-0.361
same,glycan array binding signal (z-score),[18],-0.521
same,glycan array binding signal (z-score),[19],0.312
same,glycan array binding signal (z-score),[20],0.481
same,glycan array binding signal (z-score),[21],-0.351
same,glycan array binding signal (z-score),[22],0.033
same,glycan array binding signal (z-score),[23],-0.236
same,glycan array binding signal (z-score),[24],-0.385
same,glycan array binding signal (z-score),[25],-0.57
same,glycan array binding signal (z-score),[26],-0.384
same,glycan array binding signal (z-score),Gal(b1-4)Gal,-0.33
same,glycan array binding signal (z-score),[27],-0.834
same,glycan array binding signal (z-score),[28],0.257
same,glycan array binding signal (z-score),Gal(b1-4)Glc,-0.45
same,glycan array binding signal (z-score),Gal(b1-4)Glc6S,1.42
same,glycan array binding signal (z-score),Gal(b1-4)GlcNAc,-0.041
same,glycan array binding signal (z-score),[29],-0.652
same,glycan array binding signal (z-score),Gal(b1-4)GlcNAc(b1-2)Man,-0.307
same,glycan array binding signal (z-score),[30],-0.35
same,glycan array binding signal (z-score),[31],-0.383
same,glycan array binding signal (z-score),[32],0.092
same,glycan array binding signal (z-score),[33],-0.771
same,glycan array binding signal (z-score),[34],-0.556
same,glycan array binding signal (z-score),[35],0.155
same,glycan array binding signal (z-score),[36],0.057
same,glycan array binding signal (z-score),[37],-0.392
same,glycan array binding signal (z-score),[38],-0.283
same,glycan array binding signal (z-score),[39],-0.448
